Assay results as given in publication PMC4336329 (PLoS ONE, 2015).
Screen size: about 310,000 compounds; about 14,000 (4.5%) showed an effect of 50% or more. Effects have a minus sign here. The list shows a part of the results.

target: human ether-à-go-go-related gene (hERG) potassium channel (human, UniProt Q12809); experiment: primary screen, population patch clamp on CHO cells stably expressing hERG
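Note: peak tail current of the secondary pulse compared with the same well before compound.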

human ether-à-go-go-related gene (hERG) potassium channel, sequence (Q12809 whole entry, looked up): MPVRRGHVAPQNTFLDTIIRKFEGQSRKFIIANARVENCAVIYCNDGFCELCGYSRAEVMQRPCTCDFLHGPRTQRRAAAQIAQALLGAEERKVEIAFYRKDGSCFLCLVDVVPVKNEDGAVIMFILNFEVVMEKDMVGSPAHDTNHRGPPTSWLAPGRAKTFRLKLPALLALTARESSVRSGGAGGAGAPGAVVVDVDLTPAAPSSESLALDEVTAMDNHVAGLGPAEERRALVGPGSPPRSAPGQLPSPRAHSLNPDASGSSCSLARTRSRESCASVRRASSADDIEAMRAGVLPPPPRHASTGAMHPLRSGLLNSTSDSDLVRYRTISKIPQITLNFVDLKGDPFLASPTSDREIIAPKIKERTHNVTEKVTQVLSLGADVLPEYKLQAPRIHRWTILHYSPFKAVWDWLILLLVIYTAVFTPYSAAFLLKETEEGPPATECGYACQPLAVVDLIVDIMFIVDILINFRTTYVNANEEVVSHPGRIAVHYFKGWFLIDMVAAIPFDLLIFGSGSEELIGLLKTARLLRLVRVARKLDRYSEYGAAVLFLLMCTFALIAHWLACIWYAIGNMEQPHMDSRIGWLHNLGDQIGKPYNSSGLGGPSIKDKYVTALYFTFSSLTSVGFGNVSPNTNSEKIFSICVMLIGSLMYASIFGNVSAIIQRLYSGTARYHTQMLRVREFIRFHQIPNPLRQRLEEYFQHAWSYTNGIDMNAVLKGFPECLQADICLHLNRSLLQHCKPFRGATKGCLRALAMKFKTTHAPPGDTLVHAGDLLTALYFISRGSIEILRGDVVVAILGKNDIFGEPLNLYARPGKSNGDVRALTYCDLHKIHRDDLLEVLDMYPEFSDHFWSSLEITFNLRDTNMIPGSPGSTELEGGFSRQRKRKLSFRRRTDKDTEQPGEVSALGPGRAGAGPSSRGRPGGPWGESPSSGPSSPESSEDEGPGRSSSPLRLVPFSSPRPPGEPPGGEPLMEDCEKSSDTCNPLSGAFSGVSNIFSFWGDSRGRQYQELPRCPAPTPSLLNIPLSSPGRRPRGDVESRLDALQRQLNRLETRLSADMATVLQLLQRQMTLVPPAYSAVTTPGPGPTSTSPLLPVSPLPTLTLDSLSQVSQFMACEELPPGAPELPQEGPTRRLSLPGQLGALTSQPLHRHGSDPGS

SMILES | hERG current change (%, negative = inhibition) at 10uM [%]
Cc1ccc(S(=O)(=O)NCCCCCC(=O)Nc2ccccn2)cc1 | -11
COc1ccc(C(=O)C[n+]2cn(C(F)F)c3ccccc32)c(F)c1.[Br-] | -4.45
Cc1ccc(-n2c(N)cc(=O)nc2SCC(=O)NC2CCCCC2)cc1C | 8.7
CC(C)(C)c1ccc(C(=O)O/N=C(\N)c2ccccn2)cc1 | 21.1
O=C(NCc1cccc(Cl)c1)c1ccco1 | -1.61
O=C(Nc1nc(-c2ccccc2)cs1)C1c2ccccc2Oc2ccccc21 | 5.83
COC/C=C/C1=CC2=CC(=O)C(C)(OC(=O)c3cnc4ccccc4n3)C(=O)C2=CN1CC1CC1 (stereo not drawn) | 11.5
O=C1CCC(=O)N(c2ccccc2)N1 | 21.9
NS(=O)(=O)c1ccc(CNC(=O)c2ccc(Cl)c(S(=O)(=O)NCc3ccccc3)c2)cc1 | 6.57
CCCc1cc(C(=O)OC)c(NC(=O)OCC)s1 | 1.09
C=CCNc1nc(C(=O)OCC(=O)N(Cc2ccccc2)C(C)C)cs1 | -30.8
Cc1sc(-c2ccccn2)nc1OC(=O)c1ccc(F)cc1F | 23.3
Cc1cc(C2=NNC(=Nc3ccc(S(=O)(=O)N4CCOCC4)cc3)SC2)c(C)n1C | -1.43
COc1ccc(/C=C(/NC(=O)/C=C/c2ccccc2)C(=O)N2CCOCC2)cc1 | -71.2
Cc1ccccc1CN(c1ccc(C(=O)NCc2cccnc2)cc1)S(C)(=O)=O | -0.823
Nc1nnc(SCc2c(F)cccc2Cl)s1 | -0.0422
COc1ccccc1C(=O)Nc1ccnn1C1CCN(C(=O)C2CCOC2)CC1 (stereo not drawn) | -35.9
Cc1cc(C)c2nc(N3CCC(C(=O)N4CCN(C(=O)c5ccco5)CC4)CC3)sc2c1 | -77.1
O=C(C[n+]1ccccc1)N/N=C/c1c(F)cccc1Cl.[Cl-] | 24.3
CC(=O)Nc1ccc(C(=O)NN2C(=O)c3ccccc3C2=O)cc1 | 7.29
Nc1nc(CSc2nnnn2-c2ccccc2)nc(N2CCCc3ccccc32)n1 | -0.4
O=C(COC(=O)c1ccc(S(=O)(=O)N2CCOCC2)cc1)NC1CCCC1 | -1.06
Cc1cc(C(=O)Oc2ccccc2C(=O)O)c(C)o1 | 10.5
COc1cccc(NC(=O)C2CCN(C(=O)[C@@H]3Cc4ccccc4CN3C(=O)OC(C)(C)C)CC2)c1 | 0.248
